# Measured values as given in the supplement of paper PMC11417369.
# This is one part of the list.
# System: PfSIP2 AP2 domain 1 (GST-tagged)
# Assay: gcPBM binding intensity (ln(normalized median fluorescence intensity)); higher = stronger DNA binding
# Method in brief: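 Binding intensity is the highest Masliner-normalised natural-log median intensity over replicate spots in either probe orientation. To obtain it, GST-tagged P. falciparum DNA-binding domains made in E. coli were incubated for 1 h on an Agilent 4 × 180k array of primer-extended double-stranded 36-bp intergenic genomic probes plus negative controls. Detection used Alexa488 anti-GST antibody with scanning at 488 nm.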
row,Sequence,gcPBM binding intensity (ln)
1,AATATATATATATATCCACACACATACATATATTAA [CACACA_site7907],7.41
2,ATGGTTTTTATTTTATGTACTTACTAAAATGAATAA [XGTACX_site4317],7.43
3,TACATAAAAATATATGCATGTTCTTATTTAATAAAA [TGCATGCA_site743],6.75
4,ATAAAATAAATATAACCACACACGAAAGAGAGAGAA [CACACA_site9075],7.24
5,TTTTTAGGAAAGGCGGCACACATTTATATATTTATT [CACACA_site3672],6.78
6,TTCGCCCTAAATAGAGTGCATTATATATATTAATAT,9.49
7,TTCCAACCAATACAAACATGCATTTGAAAAAATGTA [TGCATGCA_site119],6.92
8,TTTATTTTATCATTTGCACACGCACGCCCACATAAA [CACACA_site353],7.85
9,CAAAATATATTGAATTGTACATAAAAATAAAAATTA [XGTACX_site4193],6.96
10,AGCAGTCAGCAGGACAGTACACAGTAGCCAGTAACT [XGTACX_site1999],6.54
11,ATTTTTTTGGAATTCACACACAAAAAAAAAAATAAA [CACACA_site2081],7.03
12,AATTAGACATAATATACACACATATATTATATATAT [CACACA_site2691],7.71
13,TTCAAAAGATATATCGTGCACATATATATGATGAAA,10.2
14,TGGAGATAAAATAAAACACACACATATATATATATA [CACACA_site8683],9.06
15,ATACATTCTTATTACTGTACAGGGTTAATTATTTGT [XGTACX_site948],7.23
16,ATTATTTTATTTATTGGTACGTAATTGTAGATTTCT [XGTACX_site3697],7.01
17,GCAAAAACAAACGTCACACATACAAAGGCCGTGTAA [CACACA_site6043],6.65
18,ATGTTGAGTATATATACACACATACAGATATATATA [CACACA_site4967],7.16
19,TAGGTATATAAATAATGTACATATAAACTATATAGA [XGTACX_site2597],7.06
20,TCCACACAATTTATAACATGCAAAAAGGCAATAATA [TGCATGCA_site773],7.06
21,TTCTCAAAGAAGAAAAAGTTTTTTTAATTTTTCTTT [XGTACX_negctrl_site543],6.65
22,AACCAATTATATTTACGTACGTACGGTTTTTTATAT [XGTACX_site1291],7.07
23,ACATATAAAATGTATACACACAAATATTACATATAT [CACACA_site1472],7.15

row,Sequence,gcPBM binding intensity (ln)
1,AATAAAAAATATAACACAAATATGTATATATATATA [TGCATGCA_negctrl_site245],7.91
2,CAAAAAAAAAAAAAAAATAAATAAAGGAAATAAAAA [CACACA_negctrl_site20],6.54
3,AATATATTTTTTTTTTGTACATATTGTAAAATAATA [XGTACX_site6805],6.99
4,ATATATTAATATACTCGTACATATTCTTATTGTGTA [XGTACX_site3728],6.92
5,GTGTAGTTAAAAAAAAGTACAGATTTTTTTTTTTTT [XGTACX_site849],7.2
6,AAAAAAAAAAAAACAAGTACAAAGGATAGAAAAAAA [XGTACX_site4133],7.22
7,ATAGAATATTGATATTGTACGTTATCTTAAAACAAT [XGTACX_site1702],7.08
8,ATAAGAACGTCTATGTGTACGCAGCAAAACTGAGTT [XGTACX_site6385],6.71
9,CACATTTAGAAATAGTTTTATTTTGTATATTCTATT [CACACA_negctrl_site1382],6.72
10,TATACATTTATGTACACACACATATCTGTATATTTA [CACACA_site5617],6.95
11,TTTTGTATATATCACATTAAAAGAAAAAAATATATG [GTGCAC_negctrl_site120],6.95
12,GTATGTGTATGTGTATGTACATATGTATGTATAAAA [XGTACX_site8191],7.59
13,TATATATATTTCCAGTGTACTTATTTTTTAATCAAT [XGTACX_site8220],7.28
14,TAAAATATATTGCCAGTGCATAATATATGTAATTAT,7.63
15,TTTTTTAAATATTAAAAATGGGATCTTATAACATAT [GTGCAC_negctrl_site666],6.91
16,TGTATAAACCCACGTACACACACTAAGTATATCCAA [CACACA_site1605],7.38
17,AACTAATAAAAAAAAAAAACATTAAACAGGACAAAT [XGTACX_negctrl_site287],6.92
18,TAAACAAATAAATAAACACACAATATAGGTATATAT [CACACA_site7739],7.13
19,TTATTTTTAACGTACGCACACATATAAATATATTTA [CACACA_site1976],7.35
20,AATAAAATATACTATTGTACATATGGAACTACTTGA [XGTACX_site8928],6.89
21,TTGTTTTTAGTTTATACACACCATATTAAAATAATG [CACACA_site5675],7.32
22,ATTTATTATATATAGTGTACGTTCTTAATTATAATT [XGTACX_site7480],7.02
23,TTGTATTACATAAATGTTCTTTATTATTTGATAAAA [CACACA_negctrl_site903],6.79

row,Sequence,gcPBM binding intensity (ln)
1,TATATAATATATTAATGTACTTAAAATATATTCTAT [XGTACX_site1235],6.96
2,TTTATTTTAAATTTACGTACATAATTAATCATATTT [XGTACX_site7529],7.23
3,ATAAAAAATTAGGACTGTACATAATTTTTGTGATTT [XGTACX_site2857],6.86
4,TATATATATAAGGATAGTACATATATTTATATGATT [XGTACX_site4954],8.8
5,ATGAAATTTATATCATGTACATACAAGAGAAAAAAA [XGTACX_site3326],7
6,AAAATTATAAAATGGGCACACATGAATATTGTAGTA [CACACA_site5261],6.82
7,GTATAATAAATGATAGCACACATATGTACTTATATA [CACACA_site8188],7.12
8,TTATATATTTCTATTGCACACTATATTTTATGAAGA [CACACA_site2910],7.36
9,TTAACTTATTTGTAAAGTACATTAATAAAAAGAAAA [XGTACX_site1588],6.91
10,GACTACACACAAGGGTGTACATATATATTATATATA [XGTACX_site2247],7.31
11,AGGTTATAATTGTTTTCACACATTTAAAAATGTTAT [CACACA_site5097],7
12,TTATAAAAATACAGTTAACACACATGTGTATATATA [CACACA_site9257],6.99
13,AAAAAAAAAATATACACACACACATACCCATAAATA [CACACA_site5981],7.01
14,GATCGCATGAAATGAACACACATAAAAAAAATATAC [CACACA_site4087],7.42
15,AAAATAATCTTATGCACACCAAAAATTTATATAATC [CACACA_site1235],7.76
16,TAATGCAACATTTATGTGCACATAAATATTTTTTAA,8.13
17,AAAACACAATTTATTACACACATATATTATAGATTA [CACACA_site6780],6.77
18,GAGTTTTAATGTAATAGTACTTTAATTATTATATAT [XGTACX_site4527],6.97
19,TTTTTTTTTTATTCATGTACGTATTTAAATAATTCT [XGTACX_site2651],6.94
20,ATCTTTTATATATTCACACATAAAATTATACAGATA [CACACA_site5277],7.38
21,ATATATATATATAATGCACACATTATAAATTATGTA [CACACA_site5802],9.09
22,AATAAATAAATAAATATATATATATATATATATATA [CACACA_negctrl_site708],9.71
23,TATTTTTATTTTACATTATTTGTTTATAATTCTTAA [CACACA_negctrl_site1358],7.08

row,Sequence,gcPBM binding intensity (ln)
1,TGTATATACATAAAGTGTACGTATATTTATATATAT [XGTACX_site4320],7.98
2,AAAAAAAAAAAAAACACACAAACAAATGAATAAATA [CACACA_site3300],7.13
3,TAATTATACTTATTTTGTACGCAATATTTAAAATAA [XGTACX_site8516],6.99
4,ATTTCTCTATCGTAATGTACAAAAAAAAGGAAAAAA [XGTACX_site1323],7.14
5,ACATATAAATGATATGTACACACATTTATATATATA [CACACA_site9152],8.17
6,GACAAATGAAAAGATTGTACATGTATTTGAAGATTA [XGTACX_site6775],6.84
7,TGATTATATATAAATGTATGCATGTCTATTATGCTA [TGCATGCA_site543],6.89
8,TACACAAAAATTTATACACACACATATATAATATAT [CACACA_site7931],7.13
9,TCTTTTATATTTTTTTGTACACAAGAATAAAGAAAA [XGTACX_site3394],7.17
10,TATATATATATATATTGTACACATACATGTAGTTTT [XGTACX_site4848],9.7
11,TATATATATATATAGGTGCAATATTGAAAAAATATC [GTGCAC_site9535],9.82
12,AAAGTAATATATAATACATGCGTAAATATTTATGTA [TGCATGCA_site254],7
13,TTTTGGATGAACAGTACATGCAAAAACAAACTTGTA [TGCATGCA_site16],6.79
14,TGCTTCTTTTAAAAACATGTTTGTATTCATTTTATA [CACACA_negctrl_site1627],7.33
15,ACAAAAAGTTACATACGTACGTAAAATTGTAATAAA [XGTACX_site2358],6.96
16,ATAATACCATTAATTTGTACATATATATTATATATA [XGTACX_site4345],7.12
17,ATTATATTATATATATGTACATATATATATCATAAT [XGTACX_site1],7.04
18,TGTAATATATGTATTGCACACCTATAACCATTATTT [CACACA_site8422],7.17
19,TATAAGTGCCGTTATACACACGTTATATAAATATTA [CACACA_site4401],7.06
20,ATAATTATATTTAGTGGTACTACTTTTGATAATTAG [XGTACX_site6562],6.79
